Assay results published in article PMC4336329 (PLoS ONE, 2015).
Out of some 310,000 compounds screened, about 14,000 (4.5%) showed an effect of 50% or more. Effects have a minus sign here. The list shows a part of the results.

Each molecule was assayed against human ether-à-go-go-related gene (hERG) potassium channel (human, UniProt Q12809) (assay: primary screen, population patch clamp on CHO cells stably expressing hERG).
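Further: peak tail current of the secondary pulse compared with the same well before compound.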

Chain of human ether-à-go-go-related gene (hERG) potassium channel (Q12809 whole entry, looked up): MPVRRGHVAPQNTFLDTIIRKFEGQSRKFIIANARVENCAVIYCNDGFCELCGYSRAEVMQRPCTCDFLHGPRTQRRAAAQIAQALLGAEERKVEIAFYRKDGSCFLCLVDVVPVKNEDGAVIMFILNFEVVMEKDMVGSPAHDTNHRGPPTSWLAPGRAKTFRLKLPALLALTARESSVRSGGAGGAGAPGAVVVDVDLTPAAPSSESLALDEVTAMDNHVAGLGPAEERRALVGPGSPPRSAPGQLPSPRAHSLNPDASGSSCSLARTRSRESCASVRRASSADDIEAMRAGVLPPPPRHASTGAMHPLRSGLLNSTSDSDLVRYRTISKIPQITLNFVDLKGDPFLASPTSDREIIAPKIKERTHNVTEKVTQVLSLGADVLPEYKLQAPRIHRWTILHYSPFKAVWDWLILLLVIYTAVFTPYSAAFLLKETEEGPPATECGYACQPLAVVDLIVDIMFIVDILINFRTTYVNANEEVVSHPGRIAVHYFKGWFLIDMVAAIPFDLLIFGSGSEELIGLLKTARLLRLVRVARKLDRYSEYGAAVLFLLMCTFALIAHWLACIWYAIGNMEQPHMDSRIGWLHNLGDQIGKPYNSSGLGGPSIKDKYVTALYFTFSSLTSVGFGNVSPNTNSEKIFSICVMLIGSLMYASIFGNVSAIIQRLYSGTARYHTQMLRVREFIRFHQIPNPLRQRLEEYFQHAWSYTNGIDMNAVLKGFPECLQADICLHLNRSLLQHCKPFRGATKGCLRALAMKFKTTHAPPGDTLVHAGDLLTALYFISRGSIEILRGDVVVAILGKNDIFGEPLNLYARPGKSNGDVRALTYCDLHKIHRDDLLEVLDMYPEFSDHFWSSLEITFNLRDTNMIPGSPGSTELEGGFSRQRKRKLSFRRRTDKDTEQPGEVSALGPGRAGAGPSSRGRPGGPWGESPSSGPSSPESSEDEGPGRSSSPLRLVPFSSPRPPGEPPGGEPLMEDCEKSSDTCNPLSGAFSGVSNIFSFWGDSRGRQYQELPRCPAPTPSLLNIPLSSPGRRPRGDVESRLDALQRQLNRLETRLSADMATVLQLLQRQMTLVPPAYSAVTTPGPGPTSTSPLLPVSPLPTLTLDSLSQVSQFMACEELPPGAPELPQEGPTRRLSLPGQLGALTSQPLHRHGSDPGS

Compound	hERG current change (%, negative = inhibition) at 10uM
Cc1cc(S(=O)(=O)Nc2ccc(C(=O)NCCCN3CCCC3=O)cc2)ccc1F	8.37%
c1ccc(CN2CCC(N3CCN(Cc4ccc5c(c4)OCO5)CC3)CC2)cc1	-39.8%
Cc1cc(OCC(=O)NCc2ccccn2)c2c(C)cc(=O)oc2c1	-7.15%
CCSc1nnc(CNC(=O)c2ccccc2F)n1-c1ccccc1OC	12.4%
COc1cccc(OCCCN2CCN(S(=O)(=O)c3ccc(NC(C)=O)cc3)CC2)c1	-4.74%
CC(C)Cc1ccc(/C(=N/O)C(=O)O)s1	3.56%
CCOc1ccc(Cc2noc3c2C(=O)CCC3)cc1OCC	20.4%
COC(=O)c1ccc(NC(=O)CSC2=Nc3ccccc3C3CC=NN23)cc1 (centres unmarked)	-7.06%
O=C(COC(=O)c1ccc(O)cc1O)N=c1sccn1Cc1ccccc1Cl	-5.24%
CCOC(=O)c1c(S(=O)(=O)N2CCN(C)CC2)c(C)n(C)c1C	6.74%
CS(=O)(=O)C1=NSC2=NC(=O)/C(=C\c3ccc(OC(=O)c4ccco4)cc3)C(=N)N21	13.7%
COc1ccccc1NS(=O)(=O)c1cc(NC(=O)C(C)NC(N)=O)ccc1N1CCCC1 (centres unmarked)	-32.2%
CCCCOc1ccc(C(C)NC(=O)CCS(=O)(=O)Cc2ccccc2Cl)cc1 (centres unmarked)	8.55%
CCc1nc(NC(=O)c2sc(C)nc2C)sc1C(=O)OC	7.48%
Cc1ccc(C)c(NC(=O)C2CC(=O)N(C3CCCCC3)C2)c1 (centres unmarked)	2.58%
COc1cc(S(=O)(=O)Nc2ccc3nc(C)sc3c2)ccc1NC(C)=O	21.3%
Cc1ccccc1NC(=O)c1c(C)cc(=O)oc1C	25%
Cc1ccc(OCC(=O)Nc2cc(S(=O)(=O)N3CCCCC3)ccc2N2CCN(C)CC2)c(C)c1	-57.7%
CCCCN(CCCC)C(=O)CN(C)S(=O)(=O)c1ccc2c(c1)n(C)c(=O)c(=O)n2C	-37%
CC1CN(c2ccccc2)c2nc3c(c(=O)[nH]c(=O)n3C)n2C1 (centres unmarked)	6.11%
Cc1cccc(OCC(O)Cn2c(N3CCCCC3)nc3c2c(=O)[nH]c(=O)n3C)c1 (centres unmarked)	13%
O=C(Nc1cccc2ncccc12)c1cc([N+](=O)[O-])ccc1Cl	19.6%
COC(=O)c1c(N2C(=O)CC(Sc3ccccc3C(=O)O)C2=O)sc(C)c1C (centres unmarked)	27.9%
O=C(CNC(=O)c1ccco1)NCC(=O)OCC(=O)c1ccc(Cl)c([N+](=O)[O-])c1	8.13%
CCOc1ccc(-n2nnc3c(=O)n(CC(=O)NCc4ccco4)cnc32)cc1	10%
CCc1c(C(=O)N/N=C/c2ccco2)nnn1-c1nonc1N	15.9%
Cc1cccc(NC(=O)CN2C(=O)COc3ccc(Cl)cc32)c1	-4.75%

Compound	hERG current change (%, negative = inhibition) at 10uM
Cc1ccc2nc(Nc3nc(C)cc(C(F)(F)F)n3)nc(C)c2c1	0.741%
CC1(C)CC(=O)c2cc(C(=O)NC3CCSC3=O)c(=O)n(-c3ccccc3)c2C1 (centres unmarked)	-0.214%
CCC(=O)N1CCN(CCN=CC2=C(O)CC(C)(C)CC2=O)CC1	7.27%
C#CCOCCOCCOCCNc1nc(N2CCN(C(=O)[C@H](Cc3cc4ccccc4[nH]3)n3cc([C@@H](N)C(C)CC)nn3)CC2)nc(N2CCN(C(=O)[C@H](Cc3cc4ccccc4[nH]3)n3cc([C@@H](N)Cc4ccc(O)cc4)nn3)CC2)n1.Cl (some centres unmarked)	1.23%
Cc1c2cnn(CC(=O)NCCCN3CC(C)CC(C)C3)c(=O)c2c(C)n1Cc1ccc(Cl)cc1 (centres unmarked)	-52.6%
Cc1ccc([N+](=O)[O-])c(OCCN2CCCCCC2)c1.O=C(O)C(=O)O	-34%
CCOc1ccccc1N1CCN(Cc2cnc(-c3ccccc3)[nH]2)CC1	-40.6%
CC1CC(C)CN(CCC(=O)Nc2ccc(Br)cc2)C1.Cl (centres unmarked)	-53.5%
CSc1nc(NCCOCCO)c2sc3nc(-c4ccco4)c4c(c3c2n1)CCC4	-0.753%
O=C1CCC(=O)N1OCCOc1ccc(Cl)c2ccccc12	7.01%
O=C(CCN1C(=O)/C(=C/c2ccccc2Cl)SC1=S)N1CCOCC1	20.8%
COc1ccccc1-c1nnc(NC(=O)C(C)SC2=NCCS2)s1 (centres unmarked)	-0.0971%
Cc1cc(C)c2nc(N3CCC(C(=O)NCc4ccccn4)CC3)sc2c1	-25.3%
COc1cc(S(=O)(=O)n2nc(C)cc2C)c(OC)cc1Cl	-8.58%
COc1ccc(C(CNC(=O)c2oc3ccc(C)cc3c2C)N2CCCCC2)cc1 (centres unmarked)	6.26%
COc1ccccc1CNC(=O)CCC(=O)N1CCOc2ccc(Cl)cc21	-5.43%
O=C(Cn1ncc2c3ccccc3n(Cc3ccccc3)c2c1=O)NC1CCCC1	10.1%
O=C(c1ccccc1NS(=O)(=O)c1ccc2c(c1)OCCO2)N1CCOCC1	7.56%
CCOC(=O)N1CCC(=NNC(=O)c2ccc(O)cc2)CC1	4.27%
CC(NC(=O)C1(c2cccs2)CCOCC1)c1ccccc1 (centres unmarked)	9.67%
O=C(CCC(=O)N1CCN(S(=O)(=O)c2cccc(F)c2)CC1)c1cccs1	-8.66%
Cc1ccccc1OCC(=O)N1N=C(C(F)(F)F)CC1(O)C(C)(C)C (centres unmarked)	-22.9%
O=C1CCN(C(=O)Nc2ccccc2Cl)N1	-4.64%
CCOC(=O)C1CCN(Cc2cc(C(C)(C)C)c(O)c(C(C)(C)C)c2)CC1	-63.1%
COc1ccccc1NC(=O)C(C)OC(=O)CSCC(=O)Nc1cc(C)on1 (centres unmarked)	9.01%
COc1ccc(-c2nc(-c3ccccc3)c(-c3cc([N+](=O)[O-])ccc3C)[nH]2)cc1O	3.31%
